Results taken from PubChem BioAssay AID485294 (National Center for Advancing Translational Sciences (NCATS), 2010).
Out of some 370,000 compounds screened, about 150 (0.041%) were called active. Inconclusive results, whose numbers are uncertain, are shown with a selection of clear calls. Calls follow the shape of the dose curve; as a rule, active = well fitted inhibition curve with a large enough effect; inconclusive = small, poorly fitted or top-dose-only effect; inactive = flat fitted curve, though single readings scatter. No potency is given beside an inconclusive call; the fits are too rough.

biological target: Beta-lactamase (Escherichia coli (strain K12)) (UniProt P00811); test: qHTS Inhibitors of AmpC Beta-Lactamase (assay with detergent); conditions: AmpC hydrolysis of nitrocefin, absorbance 480 nm, 0.01% Triton; activity change, negative = inhibition: at 114 µM (top of the series); also: nearly all actives have a fitted effect of over 25% in size;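 as to activity change, negative = inhibition: 0% = no-compound wells and -100% = no-enzyme wells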
In short: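 AmpC (5.3 nM in the dispensed reagent) in 20 mM phosphate pH 7.0 with 0.01% (detergent screen) or 0.0001% Triton X-100 was preincubated with compounds for 15 min at room temperature. Nitrocefin was then added from an 800 uM solution, and hydrolysis was followed at 480 nm.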
Potency is read from the fitted curve at half-maximal effect; tags tell the direction and shape of the fitted curve.

Chain of UniProt P00811 (P00811 whole entry, looked up): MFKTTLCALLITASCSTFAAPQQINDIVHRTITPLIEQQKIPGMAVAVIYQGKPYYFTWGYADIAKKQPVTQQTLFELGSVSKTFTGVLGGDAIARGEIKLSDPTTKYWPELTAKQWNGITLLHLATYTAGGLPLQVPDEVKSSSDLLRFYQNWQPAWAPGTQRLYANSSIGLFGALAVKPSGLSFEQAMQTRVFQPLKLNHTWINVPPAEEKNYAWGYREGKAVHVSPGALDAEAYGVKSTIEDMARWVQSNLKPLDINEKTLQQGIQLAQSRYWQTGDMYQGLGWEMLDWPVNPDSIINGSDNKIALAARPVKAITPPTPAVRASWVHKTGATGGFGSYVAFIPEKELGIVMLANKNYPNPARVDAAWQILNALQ

SMILES	Potency	activity change, negative = inhibition
Cc1ccc(OCC(=O)N2CCN(Cc3ccc4c(c3)OCO4)CC2)cc1	inconclusive [inhibitor, full curve]	
COC(=O)c1cc2c(C)[nH]c(C)c2cc(C(=O)OC)c1=O	inconclusive [inhibitor, full curve, poor fit]	
CN(C(=O)c1ccc2c(c1)N(Cc1ccc(F)cc1)C(=O)c1ccccc1S2(=O)=O)C1CCCCC1		inactive: 17%
Cc1ccc2nc(SCC(=O)Nc3ccc(F)cc3)nc(=O)n2c1	inconclusive [inhibitor, full curve, poor fit]	
CCOC(=O)C1(Cc2cccc(OC)c2)CCN(Cc2cccc(OC)c2O)CC1		inactive: -3.13%
Cc1cccc(N=C2NC(=O)CS2)c1	inconclusive [inhibitor, partial curve, poor fit]	
c1cc(-c2noc(CC3CCCCC3)n2)ccn1	inconclusive [inhibitor, partial curve, poor fit]	
COc1cc2ncc3c(-c4ccccc4)nn(CC(=O)NC4CCCCC4)c3c2cc1OC		inactive: 21.9%
CCN(CC)CCNC(=O)C(=O)Nc1cc2c3c(c1)CC(=O)N3CCC2	inconclusive [inhibitor, full curve, poor fit]	
O=C(NC1CCCCC1)C(c1ccccc1F)N(C(=O)c1csnn1)C1CCCC1 (stereo not given)	inconclusive [inhibitor, single point]	
COC(=O)C1=C(C)NC(=S)N(C(C)=O)C1c1ccccc1 (stereo not given)		inactive: -3.34%
O=C(COC(=O)c1cccc(S(=O)(=O)NCc2ccccc2)c1)c1ccc2c(c1)OCCO2	inconclusive [inhibitor, partial curve, poor fit]	
Cc1nnc(NC(=O)CCNC(=O)c2ccccc2Cl)s1	inconclusive [inhibitor, single point]	
Cc1ccc(-c2onc(C)c2C)cc1S(=O)(=O)Nc1cccc(Cl)c1C		inactive: -3.92%
CCc1nc2ccc(C(=O)N(C)CC(=O)Nc3cccc(F)c3)cc2nc1CC	inconclusive [inhibitor, single point]	
Cn1c(/C=N/Nc2nc3ccccc3[nH]2)nc2ccccc21		inactive: 2.92%
COc1ccc(C([O-])=Nc2ccc[n+](-c3nc4ccccc4nc3NS(=O)(=O)c3ccccc3)c2)cc1		inactive: -2.7%
CCOC(=O)c1[nH]c2c(c1-c1ccc(OC)cc1)C(=O)CC(c1ccc(OC)c(OC)c1)C2 (stereo not given)	inconclusive [inhibitor, partial curve, poor fit]	
CCN(CC)CCn1c(NC(=O)c2ccc(C)cc2)nc2ccccc21	inconclusive [inhibitor, partial curve, poor fit]	
O=C(CCCc1cccs1)N1CCN(S(=O)(=O)c2ccccc2Br)CC1	inconclusive [inhibitor, full curve, poor fit]	
COc1ccc(CNC(=O)/C=C/c2cc([N+](=O)[O-])ccc2OC(F)F)cc1	inconclusive [inhibitor, single point]	
N/C(=N\c1nc(C(F)(F)F)cc(=O)[nH]1)Nc1ccc(Cl)cc1	inconclusive [inhibitor, single point]	

SMILES	Potency	activity change, negative = inhibition
COc1cccc2[nH]c3c(N4CCC(C(N)=O)CC4)ncnc3c12	inconclusive [inhibitor, partial curve]	
COC(=O)Oc1ccc(/C=N/NS(=O)(=O)c2ccccc2)cc1OC	inconclusive [inhibitor, partial curve, poor fit]	
CCNC(=S)N1CCN(CCN=CC2=C(O)CC(c3cccs3)CC2=O)CC1 (stereo not given)	inconclusive [inhibitor, partial curve, poor fit]	
Cc1cccc(-n2ncc3c(NCCCN4CCCC4=O)ncnc32)c1		inactive: 3.91%
O=S(=O)(Nc1ccc(O)c2ccccc12)c1ccc(Br)cc1		inactive: -3.24%
O=C(Nc1cnc2ccccn2c1=O)c1ccc(Cl)cc1	inconclusive [inhibitor, partial curve]	
Cc1ccc(-c2cnn3c(N4CCOCC4)cc(C)nc23)cc1		inactive: -7.34%
CC1=C(C(=O)Nc2ccc(C)cc2)C(c2ccco2)NC(=O)N1 (stereo not given)	inconclusive [inhibitor, partial curve, poor fit]	
COC(=O)c1ccccc1NC(=O)C1CC(=O)N(c2ccccc2)C1 (stereo not given)	inconclusive [inhibitor, full curve]	
CCCOP(=O)(OCCC)C(NC(=O)c1cc(OC)c(OC)c(OC)c1)c1ccccc1 (stereo not given)	inconclusive [inhibitor, partial curve, poor fit]	
COc1ccc([C@]23Cc4cc(C#N)ccc4C(O2)c2c(cc(C)n(-c4ccccc4)c2=O)O3)cc1	inconclusive [inhibitor, partial curve]	
CC1SC(c2cccc(Cl)c2)NC1=O (stereo not given)	inconclusive [inhibitor, full curve, poor fit]	
CC(CC(=O)Nc1ccccc1)n1ccnc1 (stereo not given)	inconclusive [inhibitor, full curve]	
CCOC(=O)C1C(=O)NC(N2CCOCC2)=NC1C(C)C (stereo not given)		inactive: -7.14%
CCC(C)NC(=O)CNC(=S)N(Cc1ccc(F)cc1)C1CCCCC1 (stereo not given)	inconclusive [inhibitor, full curve, poor fit]	
CC1CCN(c2c(NCC3CCC(C(=O)N4CCCC(C)C4)CC3)c(=O)c2=O)CC1 (stereo not given)	inconclusive [inhibitor, partial curve, poor fit]	
COC(=O)Cn1c(C)nc(=O)c(-c2ccccc2)c1C	inconclusive [inhibitor, full curve, poor fit]	
CC[C@H](C)[C@H](NC(=O)c1ccc(Cl)cc1)C(=O)OCC(=O)c1ccc2c(c1)NC(=O)CO2		inactive: 4.54%
Cc1c(C(=O)NCc2cccnc2)sc2nc(-c3ccccc3)cn12	inconclusive [inhibitor, partial curve, poor fit]	
COc1cc(NC(=O)C(NS(=O)(=O)c2ccc3c(c2)CCCC(=O)N3)C(C)C)cc(OC)c1 (stereo not given)		inactive: 2.18%
Fc1ccc(-c2nnc(CSc3nnc(-c4cccs4)o3)o2)cc1	inconclusive [inhibitor, full curve, poor fit]	
CCc1sc(NS(C)(=O)=O)nc1-c1ccccc1	inconclusive [inhibitor, full curve, poor fit]	

SMILES	Potency	activity change, negative = inhibition
CC1C(=O)N(Cc2ccccc2F)c2ccccc2N1C(=O)c1c(F)cccc1F (stereo not given)		inactive: 5.45%
CCOC(=O)C1CCN(C(=O)/C=C/c2ccc3c(c2)OCO3)CC1	inconclusive [inhibitor, full curve, poor fit]	
C/C(Sc1nnc(Cc2ccccc2)o1)=C(/O)c1ccccc1	inconclusive [inhibitor, full curve, poor fit]	
Cc1nnc(SC(C(=O)Nc2ccc(Cl)c([N+](=O)[O-])c2)c2ccccc2)[nH]c1=O (stereo not given)	inconclusive [inhibitor, full curve, poor fit]	
CCCn1nnc(NC(=O)Cc2ccccc2)n1	inconclusive [inhibitor, full curve, poor fit]	
O=C(O)c1cccc(N2C(=O)Nc3ccccc3N2O)c1	inconclusive [inhibitor, full curve]	
CCOC(=O)c1ccc(NC(=S)NCc2ccccc2)cc1	inconclusive [inhibitor, full curve, poor fit]	
O=C(c1ccc2c(c1)N(Cc1cccc(Cl)c1)C(=O)c1ccccc1S2(=O)=O)N1CCN(c2ccccn2)CC1		inactive: 2.56%
NS(=O)(=O)c1ccc(CCNC(=O)c2ccc3nc4ccc(Cl)cc4c(=O)n3c2)cc1	inconclusive [inhibitor, partial curve, poor fit]	
C#CCOCCOCCOCCNc1nc(N2CCOCC2)nc(N2CCN(C(=O)[C@H]([C@@H](C)CC)n3cc(CCCCN)nn3)CC2)n1	inconclusive [inhibitor, partial curve, poor fit]	
Cc1ccc(C(=O)N2C(=O)c3cccc(N)c3C2=O)o1		inactive: 1.21%
COC(=O)Cc1c(C)c2ccc(OC(C)C)cc2oc1=O		inactive: 4.18%
O=c1c2ccccc2sn1-c1nccs1	inconclusive [inhibitor, full curve, poor fit]	
COc1ccc(NC(=O)CCn2c(-c3ccc(F)cc3)cc(C(C)=O)c2C)c(OC)c1		inactive: 4.24%
Cn1c(=O)n(C)c2cc(/C=N/n3cnnc3)ccc21	inconclusive [inhibitor, full curve, poor fit]	
O=C(COc1ccc(F)cc1)Nc1ccc(S(=O)(=O)N(Cc2ccccc2)c2ccccc2)cc1		inactive: 17.5%
Cc1cc(C)cc(N(CCC#N)C(=O)COC(=O)C2=COCCO2)c1	inconclusive [inhibitor, single point]	
FC(F)(F)C1=Nc2cccc3cccc(c23)N1	inconclusive [inhibitor, partial curve, poor fit]	
COCCn1c(CN(C)Cc2ccccc2)nc2c1c(=O)n(C)c(=O)n2C	inconclusive [inhibitor, partial curve]	
O=C(NCC(=O)N(CCc1ccccc1)C(C(=O)NC1CCCCC1)c1ccncc1)c1ccco1 (stereo not given)	inconclusive [inhibitor, full curve, poor fit]	
CCCCCCCNC(=O)C1(CC2CC(c3ccc(Cl)cc3)=NO2)CCN(C(=O)c2cc(OCC)c(OCC)c(OCC)c2)CC1 (stereo not given)	inconclusive [inhibitor, partial curve, poor fit]	
